In all, about 110,000 compounds were measured (“z-score”: median about -0.1, highest 2% from about 2 on). The list shows a part of the results.

The target in the experiment is Metabotropic glutamate receptor 8 (Rattus norvegicus) (UniProt P70579). The experiment in a line: mGluR8 Gi/Go-coupled signaling modulation – cell-based, rat, thallium flux, HTS, primary screen (AID 488969). Particulars: HEK293 rat mGluR8, GIRK (G protein-gated inwardly rectifying potassium channel) thallium flux, FluoZin2; at 10 µM; stronger effect = higher value; submaximal glutamate (EC20) added with thallium.
Sequence of UniProt P70579 (P70579 whole entry, looked up): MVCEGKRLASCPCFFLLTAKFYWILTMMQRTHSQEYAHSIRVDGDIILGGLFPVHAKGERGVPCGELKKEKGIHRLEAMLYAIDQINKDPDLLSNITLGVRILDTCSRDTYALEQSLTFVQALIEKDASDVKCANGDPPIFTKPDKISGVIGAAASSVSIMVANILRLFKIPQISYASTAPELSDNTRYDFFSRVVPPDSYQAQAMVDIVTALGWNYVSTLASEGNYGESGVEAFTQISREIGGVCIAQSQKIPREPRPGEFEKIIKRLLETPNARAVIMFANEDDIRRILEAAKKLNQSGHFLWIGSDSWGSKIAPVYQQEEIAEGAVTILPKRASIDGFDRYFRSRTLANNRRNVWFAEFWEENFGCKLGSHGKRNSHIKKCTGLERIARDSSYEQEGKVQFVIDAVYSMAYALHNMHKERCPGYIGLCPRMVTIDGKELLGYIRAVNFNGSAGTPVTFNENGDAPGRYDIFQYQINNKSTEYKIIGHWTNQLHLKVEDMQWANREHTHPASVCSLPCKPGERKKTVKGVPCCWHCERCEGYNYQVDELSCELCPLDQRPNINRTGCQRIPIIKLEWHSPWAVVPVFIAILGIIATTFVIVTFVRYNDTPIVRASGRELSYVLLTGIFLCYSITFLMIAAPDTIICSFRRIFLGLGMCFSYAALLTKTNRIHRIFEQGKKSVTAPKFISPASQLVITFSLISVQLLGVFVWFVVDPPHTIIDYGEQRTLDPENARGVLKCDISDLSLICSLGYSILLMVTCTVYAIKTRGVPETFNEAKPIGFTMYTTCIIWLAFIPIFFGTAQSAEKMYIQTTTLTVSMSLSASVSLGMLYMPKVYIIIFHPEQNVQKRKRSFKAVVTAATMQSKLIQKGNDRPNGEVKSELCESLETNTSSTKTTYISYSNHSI
Regarding `OCCNc1nc(NCCC2=CCCCC2)nc(N2CCOCC2)n1`, the z-score is -0.929.

As for `Cc1ccc(CNC(=O)COC(=O)CSc2ccc(Br)cc2C)cc1`, the z-score was -0.303.

Consider `COC(=O)C1=C(C)n2nnnc2NC1c1ccc(Cl)cc1` (stereo not given), for which the z-score is -1.56.

As for `O=C1CCCC2=C1C(c1ccc(Cl)cc1)C1C(=O)c3ccccc3C1=N2` (stereo not given), the z-score is -0.0579.

`Cc1cc(NC(=O)CSc2nnnn2C2CCCC2)no1`: the z-score was found to be 0.00246.

As to `Cc1cc(C)n(-c2nc3ccccc3nc2N2CCN(S(=O)(=O)c3ccc4ccccc4c3)CC2)n1`, the z-score is -0.189.

On to `COc1ccc(C)cc1S(=O)(=O)N1CCN(Cc2ccccc2)CC1`, for which the z-score is -0.238.

Take `CC(OC(=O)c1ccc2ncsc2c1)C(=O)NCc1ccccc1` (stereo not given): the z-score came to 0.0216.

On to `CC(=O)c1c(C)[nH]c(C(=O)OCC(=O)N2CCN(S(=O)(=O)c3ccc(C)cc3C)CC2)c1C`, for which the z-score is -0.0929.

As for `CC1Cn2c(nnc2-c2cc3ccccc3cc2O)S1` (stereo not given), the z-score was -0.312.

With `FC(F)(F)c1cc(-c2ccco2)nc(N2CCN(c3ccccc3)CC2)n1`, the z-score is -0.256.

For the molecule `Cc1cc(C)nc(Sc2ccc3nnc(C(F)(F)C(F)(F)C(F)(F)F)n3n2)n1`, the z-score is -0.0632.

`COc1ccc(Cc2nnc(SCc3c(C)noc3C)n2C2CCCCC2)cc1OC` registered a z-score of 0.045.

As to `CNC(=S)NC1CC2CCC(C1)N2Cc1ccccc1` (stereo not given), the z-score is -0.141.

For the molecule `C1COCCNCCOCCOCCN1`, the z-score is -0.21.

`CN(C)c1ccc(N2C(=O)CC(Nc3ccc(N4CCOCC4)cc3)C2=O)cc1` (stereo not given): the z-score was -0.145.

Take `O=C(O)/C=C/C(=O)NNC(=O)c1ccc(Br)cc1`: the z-score is 0.0968.

As for `COc1ccc(S(=O)(=O)N2CCC(C(=O)N3CCN(c4ccccc4OC)CC3)CC2)cc1`, the z-score is -0.274.

`N#Cc1c(NCCN)nc(NCc2ccccc2)c2c1CCN(Cc1ccccc1)C2`: the z-score is -0.11.

As for `COc1ccc(CNC(=O)/C(C#N)=C2\N=C(NC(=O)c3cccs3)c3ccccc32)cc1`, the z-score stood at 0.474.

Turning to `CC(C)(C)c1ccc(OC(=O)c2ccc3nsnc3c2)cc1`, the z-score was -0.00352.

As to `COc1cc(NC(=O)c2ccco2)c(C(=O)O)cc1OC`, the z-score was -0.12.

For `COc1ccc(NC(=O)Cn2c(=O)sc3ccccc32)c(OC)c1`, the z-score is -0.611.

Molecule `CCc1ccc(NC(=O)c2onc(C)c2Cl)cc1` gave a z-score of 0.00239.

`CCN1CCN(C(c2ccccc2)c2nnnn2Cc2ccccc2)CC1` (stereo not given): the z-score stood at 0.171.

In the case of `CCCCCC(=O)Nc1nnn(CCC)n1`, the z-score was found to be 0.0157.

Regarding `O=C1C2CC=C(Cl)CC2C(=O)N1CCC[n+]1ccccc1` (stereo not given), the z-score was -0.162.

`Cc1cc(=O)[nH]c(SCCCOc2ccccc2Cl)n1`: the z-score is -1.08.

`COc1ccc(C(=O)n2cnnc2N)cc1`: the z-score amounted to 0.194.

As for `CCc1cc2c(=O)n(-c3ccc(C)cc3)cnc2s1`, the z-score was -0.106.

For the molecule `COc1cc(OC)cc(-c2cc3nc(C)cc(N4CCN(C(=O)c5ccco5)CC4)n3n2)c1`, the z-score was -0.0474.

Turning to `CC1=C(C(=O)OCc2ccc3c(c2)OCO3)C(c2ccccc2OCc2ccccc2)NC(=O)N1` (stereo not given), the z-score is -0.467.

In the case of `CC1(c2ccccc2Cl)NC(=O)N(CC(=O)NC(=O)NCc2ccco2)C1=O` (stereo not given), the z-score amounted to 1.01.

As to `CCOC(=O)C1=C(C)N=C2SC(CC)C(=O)N2C1c1cccc(F)c1` (stereo not given), the z-score is -2.34.

With `COC(=O)[C@H](CCSC)NC(=O)N1CCC(C)CC1`, the z-score came to 0.07.

The molecule `O=[N+]([O-])c1ccc(OCC(O)CN(CCO)CCO)cc1` (stereo not given) gave a z-score of 0.209.

As for `COc1ccc(/C=N/NC(=O)COc2ccc(Cl)cc2Cl)cc1Cn1nc(C)cc1C`, the z-score was -0.534.

Molecule `Cc1cc(C)c(C)c(S(=O)(=O)NCc2ccc(C(=O)N3CCCCC3)cc2)c1C` returned a z-score of 0.249.

With `CCOC(=O)C1CCN(c2cc(=O)n(-c3ccc(OC)cc3)c(=O)[nH]2)CC1`, the z-score was determined as 0.162.

As for `COc1cc(OC)cc(C(=O)N2CCN(C3CCN(Cc4ccccc4)CC3)CC2)c1`, the z-score is -0.0186.

The molecule `O=C(O)CNC(=O)c1ccc2c(c1)OCCO2` returned a z-score of 0.311.

For the molecule `CC1=C(C(=O)Nc2cccc(C)n2)C(c2ccc3c(c2)OCO3)C2=C(CC(c3ccco3)CC2=O)N1` (stereo not given), the z-score was -0.394.

Take `Cc1c(C2=CCN(S(=O)(=O)c3ccc(Cl)cc3)CC2)c2ccccc2n1C`: the z-score was -0.123.

For the molecule `CCOc1cc(/C=N/NC(=O)C(=O)NCCCOC(C)C)cc(Br)c1O`, the z-score was -0.0647.

`Cc1c(-c2ccccc2)c(P(=O)(N2CCOCC2)N2CCOCC2)c2ccccn12`: the z-score was -0.299.

On to `O=C(c1ccc2c3c(cccc13)CC2)N1CCN(c2ncccn2)CC1`, for which the z-score was -0.454.

For `Cc1c(Br)c([N+](=O)[O-])nn1C(C)C(=O)N1CCCc2ccccc21` (stereo not given), the z-score is -0.221.

`CCOc1ccc(C2/C(=C(\O)c3c(C)[nH]c(C(=O)OC)c3C)C(=O)C(=O)N2CCN(C)C)cc1` (stereo not given): the z-score stood at 0.209.

`Cc1cccc(-n2ncc(C#N)c2N)c1` had a z-score of 1.01.

Regarding `CC(C)(C)c1ccc(OCc2nc(-c3ccccn3)no2)c(Br)c1`, the z-score is -0.157.

As to `CC1CCCCC1NS(=O)(=O)c1ccc(S(=O)(=O)N2CCCC2)cc1` (stereo not given), the z-score was -0.536.

With `CCCCN(CC)CCNC(=O)Cn1cnc2sc(C)c(S(=O)(=O)N3CCOCC3)c2c1=O`, the z-score was -0.183.

Molecule `CCc1c(C(=O)NNC(=S)NCc2ccccc2)csc1C` returned a z-score of 0.611.

For the molecule `O=C(NCC(c1cccs1)N1CCOCC1)c1ccccc1NS(=O)(=O)c1ccc(Cl)cc1` (stereo not given), the z-score is -0.359.

For the molecule `CCCn1c(SCC(=O)c2cc(C)n(-c3ccc4c(c3)OCO4)c2C)n[nH]c1=O`, the z-score is -0.175.

`CC(NC(=O)c1ccccc1)C(=O)NC1=NCCS1` (stereo not given) returned a z-score of 0.0634.

Take `CS(=O)(=O)N(CCc1ccccc1)CC(=O)N1CCN(c2ccccc2)CC1`: the z-score is -0.157.

Regarding `O=C(C1CCCN(S(=O)(=O)Cc2ccccc2)C1)N1CCCCC1` (stereo not given), the z-score is -0.0708.

Take `Cc1ccc(S(=O)(=O)N2CCN=C2c2ccccc2)cc1C`: the z-score came out at 0.196.

In the case of `CSc1ncccc1C(=O)OCC(=O)NC1CCS(=O)(=O)C1` (stereo not given), the z-score was -0.0709.

On to `O=C(Cc1noc2ccccc12)Nc1ccc2ccccc2c1`, for which the z-score is -0.24.

As to `COc1ccc(Cl)cc1NC(=O)NC(C)c1ccncc1` (stereo not given), the z-score is -0.275.

Regarding `O=C(CCc1nc(-c2ccccc2F)no1)Nc1ccc(Oc2ccccc2)cc1`, the z-score was determined as 0.772.

Take `Cc1ccc2nc3sc(C(=O)Nc4c(C)[nH]c(=O)[nH]c4=O)c(N)c3cc2c1`: the z-score was -0.158.

As for `Cc1cc(NC(=O)c2ccc3c(c2)OCO3)ccc1NC(=O)c1ccco1`, the z-score is -0.13.

In the case of `Cc1ccc(-c2csc3ncnc(Cl)c23)cc1`, the z-score turned out to be 0.241.

As for `CCNC(=S)N(Cc1cc2cc(C)cc(C)c2[nH]c1=O)C1CCCC1`, the z-score was -0.615.

The molecule `Cc1ccc(C(=O)NCCN(C)C)c(C)c1` came in with a z-score of 0.0179.

As to `CN1C2CCC1CC(OC(=O)c1c[nH]c3ccccc13)C2` (stereo not given), the z-score is 1.34.

With `Cc1nn(Cc2ccccc2Cl)c(C)c1NC(=O)NC12CC3CC(CC(C3)C1)C2`, the z-score was -0.454.

(Values after PubChem BioAssay AID488969 (Vanderbilt High Throughput Screening Facility, 2010).)
